In ChEMBL document CHEMBL4888484, “Replenishing the malaria drug discovery pipeline: Screening and hit evaluation of the MMV Hit Generation Library 1 (HGL1) against asexual blood stage Plasmodium falciparum ,using a nano luciferase reporter read-out” (2022):
Among all 150,000 compounds or so, about 540 (0.36%) showed an effect of 50% or more. Some of the results follow.

test system: Plasmodium falciparum; assay: Primary screen in NF54 nanoGlo assay, in single point, at 2uM, 72h; a lower Z score goes with more inhibition; format: functional, Erythrocyte; conditions: timepoint 72 hour

| Structure (SMILES) | % Inhibition [%] | Z score |
| --- | --- | --- |
| CC(C)NC(=O)CNC1CCC2(CC1)C[C@@H]2NC(=O)OC(C)(C)C (some centres not stated) | -3 | 0.51 |
| O=C(NCCn1cc(-c2ccncc2)cn1)c1cccs1 | 13 | -1.64 |
| Clc1ccc(-n2cccc2CN2CCCn3cncc3C2)nc1 | -10 | 1.87 |
| CCN1C[C@H](CN(C)Cc2nc(C3CC3)no2)Oc2ccccc21 | -6 | 0.71 |
| Cc1nc(C2=C(O)CN(CCc3ccccc3)C2=N)sc1C | -12 | 1.91 |
| CC(C)(C)OC1CC(NC(=O)CCc2ccccn2)C1n1cccn1 (configuration not stated) | -27 | 2.9 |
| CCOc1ncccc1CNC(=O)[C@@H]1CCCN1C(C)=O | 3 | -0.58 |
| CCOC(=O)CC1(NC(=O)N2CCN(c3nc4ccccc4n3C)CC2)CCCCC1 | 6 | -1 |
| CN1CCCC[C@@H](C(=O)NCCc2ccccn2)C1=O | -10 | 1.4 |
| Cc1ccc(C(=O)NC[C@@H]2CN(C)C(=O)[C@H](C)N2Cc2cccc(C)c2)nc1 | -10 | 1.44 |
| COc1ccc(S(=O)(=O)N2CCC(N3CCN(c4ccccc4OC)CC3)CC2)cc1 | 0 | -0.07 |
| Cc1cn2c(n1)CN(C(=O)c1cnn(CC(C)C)c1C(F)F)CC2 | -1 | 0.11 |
| CN(CCc1ncccn1)C(=O)OCC1CCCCC1 | -13 | 2.66 |
| CC(C)Cc1nc(CN2c3ccccc3C(C(N)=O)CC2C)no1 (configuration not stated) | -14 | 1.89 |
| CN(C)[C@@H](CNc1oc(C(C)(C)C)nc1C#N)c1ccco1 | 4 | -0.51 |
| CN1CCN(Cc2cccc3ncccc23)C[C@H]1c1ccccc1 | -7 | 1.15 |
| COc1ccc(CCCN(C)CC(=O)Nc2cc(C)no2)cc1 | -10 | 1.23 |
| CC(C)c1noc(Cn2ccnc2-c2ccccc2-c2ccco2)n1 | -2 | 0.19 |
| CCc1noc(C)c1C(=O)NC(C)C1CCCO1 (configuration not stated) | 6 | -1.27 |

| Structure (SMILES) | % Inhibition [%] | Z score |
| --- | --- | --- |
| CCC1CCCCC1OCC(=O)NS(C)(=O)=O (configuration not stated) | 4 | -0.5 |
| N#Cc1nccnc1NCCCNc1nccnc1C#N | -3 | 0.38 |
| CCc1c(C)sc2c1CCN(C(=O)Nc1ccc(C)c(F)c1)[C@@H]2c1ccccc1 | -13 | 1.27 |
| COCc1nn2c(c1-c1ccccc1)NC(=O)[C@@H](CC(=O)OC)C2 | 20 | -2.49 |
| O=C(c1ccncc1)N1CC[C@H](OCCCc2ccccc2)C1 | 14 | -2.04 |
| O=S(=O)(C1CC1)N1CC[C@H](c2ncon2)C1 | 6 | -1.07 |
| CCN(CC)Cc1cc(-c2nc(C)nn2-c2ccccn2)c(C)o1 | 0 | 0.05 |
| CCOc1ncccc1CNc1nnc(C2CC2)o1 | -7 | 0.86 |
| CNc1cc(C(=O)N(C)[C@@H](C)c2ccon2)ccn1 | -7 | 1.06 |
| Cc1nc(C)c(C(=O)N2CCN(C)[C@@]3(CCNC(=O)CC3)C2)s1 | -15 | 2.02 |
| N#Cc1nccn1CC(=O)[C@H]1CCCOC1 | 12 | -1.57 |
| COC(=O)C1(NCCNC(=O)c2cnsn2)CCC1 | -6 | 1.24 |
| CC[C@@H](CCO)CNS(=O)(=O)N1CCC(C(C)(C)C)CC1 | -12 | 1.67 |
| O=C(NCc1cc2c(cc1OC(F)F)OCO2)c1ccc(F)cn1 | -4 | 0.35 |
| Cc1cc2cccc(NC(=O)N3CCC(F)(F)CC3)c2o1 | -9 | 1.75 |
| CC(C)COc1cc(=O)n2c(c1C(=O)N(C)CCc1ccccn1)CCCCC2 | -2 | 0.32 |
| Cc1cnc2sc(C(=O)Nc3ccccc3)c(C(=O)O)n2c1=O | -3 | 0.61 |
| O=C(Nc1ccc2c(c1)OCO2)c1nnc(C(=O)N2CCC[C@H](C(=O)N3CCCCC3)C2)s1 | -32 | 2.8 |
| Cc1nnc(N2C[C@@H](C(F)(F)F)OC(C)(C)C2)c(C#N)c1C | -15 | 1.91 |

| Structure (SMILES) | % Inhibition [%] | Z score |
| --- | --- | --- |
| C[C@H](O)C1(NC(=O)c2ccnc3cc(Cl)ccc23)CC1 | -5 | 0.58 |
| COc1ccc(CN2C[C@H](COc3ccncc3)C3(CCOCC3)C2)cc1C | -5 | 0.67 |
| CN(Cc1ncc[nH]1)C(=O)c1cncc(Cl)c1 | -9 | 1.02 |
| COCCOC(C)C(=O)N1CCC2OCCCC2C1 (configuration not stated) | -3 | 0.29 |
| COc1ccccc1CN1Cc2ccccc2O[C@@H](C)C1=O | -5 | 0.61 |
| CC(=O)Nc1cccc(NC(=O)c2cccc(N(C)S(C)(=O)=O)c2C)c1 | 0 | 0.04 |
| Cc1cnc(NC2CC3CCC2O3)nc1NC1CC2CCC1O2 (configuration not stated) | 7 | -1.32 |
| O=C(NC1CNCCC1c1ccc(F)c(F)c1)c1ccc2c(c1)OCO2 (configuration not stated) | -11 | 1.41 |
| C/C=C/CN(C(=O)CCCN1CCCCC1=O)[C@@H](C)CC | -3 | 0.61 |
| O=C(NCCC(c1ccccc1)c1ccccc1)[C@@H]1COCCN1 | -7 | 1.32 |
| O=C(NCCn1c(=O)n(Cc2ccc(F)cc2)c2cccnc21)C1CCC1 | 12 | -1.36 |
| Cc1cccc2c(C(=O)NC3CCN(c4nnnn4C)CC3)coc12 | -7 | 1 |
| CC[C@@H](CC#N)NC(=O)c1ncc(Br)cc1O | 6 | -0.75 |
| Cc1ccc(Br)cc1NC(=O)N[C@H]1CCN(C2CC2)C1 | -8 | 1.11 |
| C[C@@H](c1nc(C2CC2)no1)N1CC(=O)N(C2CC2)C1 | -13 | 1.17 |
| O=C(O)c1cccc2c(-c3ccccc3)c(-c3ccccc3)[nH]c12 | -1 | 0.21 |
| CCc1cc2c3c([nH]c2cc1S(=O)(=O)Nc1ccc(C)cc1Cl)CCCC3=O | -14 | 2.66 |
| COCCN(Cc1ccc(C)o1)c1ncc(Cl)cn1 | -8 | 0.84 |
